Hit rate of the full screen: of about 110,000 compounds, about 230 (0.21%) showed an effect of 50% or more. This is one part of the list.
What follows are compounds tested against DPAP1 (Plasmodium falciparum, UniProt Q8IIJ9) (assay: primary screen, percent inhibition; read by cleavage of a fluorogenic dipeptide substrate; higher = more effect of the substance).
Parameters: species or system P. falciparum D10 trophozoite lysates; single well
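Note: 30 min substrate incubation versus DMSO and 10 µM JCP410 controls.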

Chain of DPAP1 (Q8IIJ9 whole entry, looked up): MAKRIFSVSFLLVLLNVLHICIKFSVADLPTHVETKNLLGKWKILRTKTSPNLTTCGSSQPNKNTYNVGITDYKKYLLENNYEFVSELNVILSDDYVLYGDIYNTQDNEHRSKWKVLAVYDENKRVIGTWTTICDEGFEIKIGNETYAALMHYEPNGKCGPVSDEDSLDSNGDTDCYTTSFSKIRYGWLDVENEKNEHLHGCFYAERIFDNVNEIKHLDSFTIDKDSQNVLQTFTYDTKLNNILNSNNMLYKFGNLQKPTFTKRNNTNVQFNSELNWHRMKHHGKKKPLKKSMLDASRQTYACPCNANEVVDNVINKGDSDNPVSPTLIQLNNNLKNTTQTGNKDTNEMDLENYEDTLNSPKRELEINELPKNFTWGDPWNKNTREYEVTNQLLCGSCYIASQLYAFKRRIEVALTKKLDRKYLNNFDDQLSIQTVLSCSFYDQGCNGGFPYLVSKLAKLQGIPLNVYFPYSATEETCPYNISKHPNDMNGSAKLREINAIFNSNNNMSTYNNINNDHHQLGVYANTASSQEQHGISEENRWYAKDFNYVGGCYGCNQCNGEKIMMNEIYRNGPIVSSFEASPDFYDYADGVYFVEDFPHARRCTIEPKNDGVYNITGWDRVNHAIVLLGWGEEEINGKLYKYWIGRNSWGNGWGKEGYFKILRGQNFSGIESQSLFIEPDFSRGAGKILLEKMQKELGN

SMILES | % Inhibition @ 10 uM [%]
CC(C)c1ccccc1OCC(=O)Nc1ccccc1Cl | -0.303
CC1Oc2ccccc2C=C1/C=c1/sc2nc(=O)c(Cc3ccc(F)cc3)nn2c1=O (stereo not shown) | 1.23
COc1ccc(CC(=O)NCc2ccccc2)cc1 | -1.48
CCCSc1nc(N)c2c3c(sc2n1)CCCC3 | 10.6
CCc1ccc(C2CC(c3cc(OC)c(OC)c(OC)c3)n3nnnc3N2)cc1 (stereo not shown) | -1.62
O=C(C1CC(=O)N(c2ccccc2)C1)N1CCN(C2=NS(=O)(=O)c3ccccc32)CC1 (stereo not shown) | -1.6
Cc1cccc(N2CCN(C(=O)C3CCCCC3C(=O)O)CC2)c1C (stereo not shown) | 0.0974
Cc1ccccc1COc1ccc(/C=C2/C(=N)N3C=CSC3=NC2=O)cc1Cl | 1.96
CC(Cc1ccc(F)cc1)NCc1ccncc1 (stereo not shown) | 3.28
CCOc1ccc(CNc2cccc(SC)c2)cc1 | 2.36
CCOc1ccccc1/C=C(\C#N)c1nc2ccccc2n1C | 5.41
CCCCOc1ccc(C=C2C(=O)c3ccccc3C2=O)cc1 | 0.827
COc1ccc(NC(=O)c2cccc3ccccc23)cc1Cl | 2.54
COc1ccc(Br)cc1CNc1ccccc1 | 1.13
CCCCOc1cccc(C(=O)N(Cc2ccc(C)o2)C2CCS(=O)(=O)C2)c1 (stereo not shown) | 0.569
COc1ccccc1OCC(=O)Nc1ccc(Oc2ccccc2)cc1 | -5.95
Cc1cccc(/C=C2/SC(=O)N(Cc3ccc(Cl)cc3)C2=O)n1 | -3.5
Cc1cnn(-c2cc(C)nc(-c3ccc(Br)cc3)n2)c1 | 2.65
Cc1c(C)n(C)c2ccc(C(=O)NC3C4CC5CC(C4)CC3C5)cc12 (stereo not shown) | 7.06
Cc1ccc(S(=O)(=O)N(C)Cc2nc(-c3ccncc3)no2)cc1 | -4.52
CC(=O)Nc1cccc(NC(=O)c2cccc(Cn3cc(Cl)cn3)c2)c1 | -2.76
COc1ccccc1C1=N/C(=C\c2cccc(Cl)c2Cl)C(=O)O1 | 3.58

SMILES | % Inhibition @ 10 uM [%]
O=C1c2ccncc2C(=O)N1c1cccc(F)c1 | 5.15
N#CCNC(=O)C(CC1CCCCC1)C(=O)N1CCc2ccccc2C1 (stereo not shown) | -5.21
Cc1ccccc1Cn1c(C(=O)O)c(CNCCC2=CCCCC2)c2ccccc21 | -5.05
COc1cccc(N(CC(=O)Nc2ccc3ccccc3c2)S(=O)(=O)c2ccccc2)c1 | 0.746
Cc1ccc(C2CC(=O)NC(SCc3ccccc3)=C2C#N)o1 (stereo not shown) | -4.03
CCOc1cc(C2NC(=O)c3ccccc3N2)ccc1O (stereo not shown) | 4.3
O=C(CN(C1CCCCC1)S(=O)(=O)c1ccc(Br)cc1)N1CCc2ccccc2C1 | -3.41
CCC1(CC)Cc2ccccc2-c2nc3n(c(=O)c21)CCS3 | 2.94
NC(=O)CCN1C(=O)c2ccccc2C1=O | -3.85
O=C1CCCC2=C1C(c1ccc3c(c1)OCO3)C1C(=O)c3ccccc3C1=N2 (stereo not shown) | 7.86
COc1ccc(CNc2nc(-c3cccnc3)nn2C(=O)c2ccc(C)cc2)cc1 | -2.92
OCC(O)CN1CCc2ccccc21 (stereo not shown) | -6.99
COc1cc(/C=C2\SC(=O)N(CC(=O)Nc3ccc(F)cc3)C2=O)ccc1OC(C)C | 3.9
CC1=CC2=NC(=O)/C(=C\c3cc(C)n(-c4cc(Cl)ccc4C)c3C)C(=N)N2O1 | -5.1
CN(Cc1ccccc1)Cc1c(O)ccc2ccccc12 | 2.91
Cc1nn(-c2ccccc2)c(-n2cccc2)c1C(=O)NCCC1=CCCCC1 | 4.95
O=C(NCCCN1CCCC1=O)c1ccc2c(Cl)c3c(nc2c1)CCCC3 | 3.06
COc1cccc(/C=C2/NC(=O)N(Cc3ccc(Cl)cc3)C2=O)c1O | 2.01
Cc1cc(-c2ccc(S(=O)(=O)N3CCc4ccccc4C3)s2)on1 | -4.93
CC(C)CCN1CSC2=C(C#N)C(c3ccc(Cl)cc3)CC(=O)N2C1 (stereo not shown) | 54.6
COC(=O)c1c(C)ncc2c1COC(C)OC2 (stereo not shown) | -5.4
Cc1ccc(CNC(=O)C2CCCN(C(=O)c3cnn(-c4ccccc4)c3-n3cccc3)C2)cc1 (stereo not shown) | 1.38

SMILES | % Inhibition @ 10 uM [%]
CCOc1ccc(C2C(C(=O)c3ccc(C)cc3)=C(O)C(=O)N2c2cccnc2)cc1 (stereo not shown) | 6.82
CN1CCN(C(=O)c2ccc(N3CCN(CCO)CC3)nc2)CC1 | 3.58
CC(C)CC1C(C#N)=C(N)OC2=C1C(=O)CC(c1ccccc1)C2 (stereo not shown) | 3.65
COc1cccc(C2Nc3ccccc3N=C3CC(c4cccs4)CC(O)=C32)c1O (stereo not shown) | -2.77
CCOc1ccc(Br)cc1/C=C(\C#N)c1nc2ccccc2[nH]1 | -2.36
O=C(NCc1cccs1)[C@H](Cc1ccccc1)N1Cc2ccccc2C1=O | 2.93
COc1ccc(CCNC(=O)c2cc(C)nc3c2c(C)nn3-c2ccc(C)cc2)c(OC)c1OC | -9.03
COc1ccc(NC(=O)c2cnn3c(C(F)F)cc(-c4ccccc4)nc23)c(C)c1 | 2.42
CCCCCCn1c(CCNC(=O)C(C)C)nc2ccccc21 | -1.74
Cc1[nH]c(-c2ccc(F)cc2)cc1C(=O)NCCCc1ccccc1 | -1.56
Cc1ccc2oc(C(=O)Nc3sc4c(c3C(=O)NCc3ccco3)CCCC4)cc(=O)c2c1 | -1.68
CC1=NN(C(=O)c2ccc(COc3ccccc3Cl)o2)C(O)(C(F)(F)F)C1 (stereo not shown) | 4.03
CCN1CCN(C(=O)CCNC(=O)c2cc(OC)c(OC)c(OC)c2)CC1 | -2.48
O=C(Nc1ccc2c(c1)C(=O)c1ccccc1C2=O)c1ccccc1 | -6.18
COc1ccc(C2CC(c3c(O)cc(C)oc3=O)=NCCS2)cc1OC (stereo not shown) | -4.01
CC1=CC(C)(C)N(S(=O)(=O)c2ccc(Cl)cc2)c2ccccc21 | -2.09
CCN1CCC(NC(C)c2ccc(F)cc2)CC1 (stereo not shown) | 3.15
Cc1ccc(NC(=O)c2ccc(F)cc2)c(NC(=O)c2ccc(F)cc2)c1 | -6.05
Cc1ccc2cc3cc(C(=O)NCc4ccc(F)cc4Cl)oc3nc2c1 | 1.9
CCOC(=O)c1sc(NC(=O)c2cncc(Br)c2)c(C(=O)OCC)c1C | 0.343

Reference: PMC6919601, “Identification of Plasmodium dipeptidyl aminopeptidase allosteric inhibitors by high throughput screening” (PLoS ONE, 2019)
